Results: the supplement of paper PMC4967469

Columns and labels:
Assay in all cases: Viability of human cancer cell lines after 72 h of drug (GDSC screen)
BMS-509744 = compound: COc1cc(C)c(Sc2cnc(NC(=O)c3ccc(CNC(C)C(C)(C)C)cc3)s2)cc1C(=O)N1CCN(C(C)=O)CC1 [BMS-509744]; settings: top dose 10.24 µM; top dose inferred
Description: (§1)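 Human cancer cell lines in 384-well plates, medium with 10% serum, drug for 72 h over a 256-fold dose range (nine 2-fold or five 4-fold steps up to the top dose). Adherent lines were fixed and stained with the nucleic acid dye Syto60, suspension lines read with resazurin; signal relative to control wells, capped at 0 and 100%. One two-parameter sigmoid per drug and line, fitted in a mixed model over all curves with the slope shared within a line.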

NG-25 = compound: CCN1CCN(Cc2ccc(NC(=O)c3ccc(C)c(Oc4ccnc5[nH]ccc45)c3)cc2C(F)(F)F)CC1 [NG-25]; settings: top dose 10.24 µM; top dose inferred
Description: as §1

PFI-1 = compound: COc1ccccc1S(=O)(=O)Nc1ccc2c(c1)CN(C)C(=O)N2 [PFI-1]; settings: top dose 10 µM; top dose inferred
Description: as §1

GSK-1904529A = compound: CCc1cc(Nc2nccc(-c3c(-c4ccc(OC)c(C(=O)Nc5c(F)cccc5F)c4)nc4ccccn34)n2)c(OC)cc1N1CCC(N2CCN(S(C)(=O)=O)CC2)CC1 [GSK-1904529A]; settings: top dose 1.024 µM; top dose inferred
Description: as §1

Tipifarnib = compound: Cn1cncc1[C@@](N)(c1ccc(Cl)cc1)c1ccc2c(c1)c(-c1cccc(Cl)c1)cc(=O)n2C [Tipifarnib]; settings: top dose 16 µM; top dose inferred
Description: as §1

Cell Line	AUC (BMS-509744)	IC50 (BMS-509744)	AUC (NG-25)	IC50 (NG-25)	AUC (PFI-1)	IC50 (PFI-1)	AUC (GSK-1904529A)	IC50 (GSK-1904529A)	AUC (Tipifarnib)	IC50 (Tipifarnib)
NCI-H128 (small cell lung carcinoma, suspension)	0.881	> 10.2 µM	–	–	–	–	–	–	–	–
NB17 (neuroblastoma, adherent)	0.861	> 10.2 µM	0.84	8.67 µM	–	–	–	–	–	–
D-336MG (glioma, adherent)	0.768	4.93 µM	0.847	> 10.2 µM	0.832	9.06 µM	–	–	–	–
RL95-2 (endometrium, adherent)	0.803	5.01 µM	0.867	9.05 µM	0.949	> 10 µM	–	–	–	–
EW-12 (Ewing sarcoma, suspension)	0.976	> 10.2 µM	–	–	–	–	–	–	–	–
GA-10 (Burkitt lymphoma, suspension)	0.802	4.13 µM	–	–	0.735	2.57 µM	–	–	–	–
CP67-MEL (melanoma, adherent)	0.831	> 10.2 µM	–	–	–	–	–	–	–	–
D-247MG (glioma, adherent)	0.903	> 10.2 µM	0.891	> 10.2 µM	0.918	> 10 µM	–	–	–	–
SK-N-DZ (neuroblastoma, adherent)	0.936	> 10.2 µM	0.906	> 10.2 µM	0.842	6.9 µM	0.986	> 1.02 µM	–	–
KP-N-RT-BM-1 (neuroblastoma, semi-adherent)	0.814	7.82 µM	–	–	–	–	–	–	–	–
CESS (acute myeloid leukaemia, suspension)	0.933	> 10.2 µM	0.853	6.29 µM	0.901	9.7 µM	0.99	> 1.02 µM	–	–
HCC38 (breast, adherent)	–	–	0.857	9.41 µM	0.908	> 10 µM	0.977	> 1.02 µM	0.76	–
MDA-MB-330 (breast, adherent)	–	–	0.948	> 10.2 µM	0.952	> 10 µM	0.968	> 1.02 µM	0.591	1.84 µM
SK-MES-1 (lung squamous cell carcinoma, adherent)	–	–	0.904	> 10.2 µM	0.83	7.03 µM	0.978	> 1.02 µM	0.547	1.36 µM
UMC-11 (lung carcinoid, adherent)	–	–	0.879	8.56 µM	0.835	5.62 µM	0.991	> 1.02 µM	0.927	> 16 µM
TOV-112D (ovary, adherent)	–	–	0.874	10.1 µM	0.821	5.83 µM	0.915	> 1.02 µM	0.329	0.332 µM
NCI-H2030 (lung adenocarcinoma, adherent)	–	–	0.828	7.58 µM	0.901	> 10 µM	0.976	> 1.02 µM	0.589	1.81 µM
OE19 (oesophagus, adherent)	–	–	0.983	> 10.2 µM	0.914	> 10 µM	0.939	> 1.02 µM	0.732	5.08 µM
KMRC-1 (kidney, adherent)	–	–	0.957	> 10.2 µM	0.934	> 10 µM	0.983	> 1.02 µM	0.94	> 16 µM
SCC-25 (head and neck, adherent)	–	–	0.794	5.45 µM	0.912	> 10 µM	0.969	> 1.02 µM	0.745	5.59 µM
JHH-1 (liver, adherent)	–	–	0.976	> 10.2 µM	0.753	3.59 µM	0.943	> 1.02 µM	0.707	4.05 µM

Cell Line	AUC (BMS-509744)	IC50 (BMS-509744)	AUC (NG-25)	IC50 (NG-25)	AUC (PFI-1)	IC50 (PFI-1)	AUC (GSK-1904529A)	IC50 (GSK-1904529A)	AUC (Tipifarnib)	IC50 (Tipifarnib)
MOLT-13 (T-cell lymphoblastic leukaemia, suspension)	0.941	> 10.2 µM	0.88	8.37 µM	0.657	1.61 µM	–	–	–	–
RD (rhabdomyosarcoma, adherent)	–	–	0.845	8.47 µM	0.843	8.14 µM	0.985	> 1.02 µM	0.768	6.54 µM
KYSE-520 (oesophagus, adherent)	–	–	0.909	> 10.2 µM	0.891	> 10 µM	0.978	> 1.02 µM	0.879	> 16 µM
SKM-1 (haematopoietic neoplasm, suspension)	0.955	> 10.2 µM	–	–	0.743	3.37 µM	–	–	–	–
NCI-H661 (large cell lung carcinoma, adherent)	–	–	0.899	> 10.2 µM	0.936	> 10 µM	0.971	> 1.02 µM	0.76	6.78 µM
H2731 (mesothelioma, adherent)	–	–	0.573	1.04 µM	0.877	> 10 µM	0.962	> 1.02 µM	0.779	7.55 µM
AN3-CA (endometrium, adherent)	–	–	0.739	3.32 µM	0.966	> 10 µM	0.962	> 1.02 µM	0.386	0.47 µM
KYSE-70 (oesophagus, adherent)	–	–	0.973	> 10.2 µM	0.705	2.51 µM	0.985	> 1.02 µM	0.515	1.1 µM
UM-UC-3 (bladder, adherent)	–	–	0.843	6.58 µM	0.925	> 10 µM	0.985	> 1.02 µM	0.831	9.25 µM
MDA-MB-468 (breast, adherent)	–	–	0.944	> 10.2 µM	0.927	> 10 µM	0.943	> 1.02 µM	0.804	7.65 µM
NCI-H2452 (mesothelioma, adherent)	–	–	0.971	> 10.2 µM	0.882	> 10 µM	0.971	> 1.02 µM	0.892	> 16 µM
LNZTA3WT4 (glioma, adherent)	–	–	0.942	> 10.2 µM	0.915	> 10 µM	0.983	> 1.02 µM	0.822	9.13 µM
HCC1428 (breast, adherent)	–	–	0.985	> 10.2 µM	0.865	> 10 µM	0.963	> 1.02 µM	0.865	> 16 µM
ML-1 (thyroid, adherent)	–	–	0.883	> 10.2 µM	0.955	> 10 µM	0.887	> 1.02 µM	0.603	2.02 µM
MKN1 (stomach, adherent)	–	–	0.953	> 10.2 µM	0.902	> 10 µM	0.958	> 1.02 µM	0.585	1.73 µM
LOU-NH91 (lung squamous cell carcinoma, adherent)	–	–	0.969	> 10.2 µM	0.894	> 10 µM	0.984	> 1.02 µM	0.771	6.68 µM
SNU-423 (liver, adherent)	–	–	0.81	6.57 µM	0.87	> 10 µM	0.953	> 1.02 µM	0.478	0.859 µM
KASUMI-1 (acute myeloid leukaemia, suspension)	0.96	> 10.2 µM	–	–	0.563	0.927 µM	–	–	–	–
H2373 (mesothelioma, adherent)	–	–	0.907	> 10.2 µM	0.925	> 10 µM	0.983	> 1.02 µM	0.897	> 16 µM
OSC-19 (head and neck, adherent)	–	–	0.91	> 10.2 µM	0.835	6.93 µM	0.964	> 1.02 µM	0.75	5.42 µM
BFTC-909 (kidney, adherent)	–	–	0.977	> 10.2 µM	0.901	> 10 µM	0.988	> 1.02 µM	0.731	4.45 µM

Cell Line	AUC (BMS-509744)	IC50 (BMS-509744)	AUC (NG-25)	IC50 (NG-25)	AUC (PFI-1)	IC50 (PFI-1)	AUC (GSK-1904529A)	IC50 (GSK-1904529A)	AUC (Tipifarnib)	IC50 (Tipifarnib)
VM-CUB-1 (bladder, adherent)	–	–	0.987	> 10.2 µM	0.864	8.22 µM	0.983	> 1.02 µM	0.647	2.52 µM
NCI-H2405 (lung adenocarcinoma, adherent)	–	–	0.956	> 10.2 µM	0.944	> 10 µM	0.966	> 1.02 µM	0.791	8.07 µM
RERF-LC-KJ (lung adenocarcinoma, adherent)	–	–	0.929	> 10.2 µM	0.787	4.49 µM	0.957	> 1.02 µM	0.711	4.03 µM
WM1552C (melanoma, adherent)	–	–	0.988	> 10.2 µM	0.881	> 10 µM	0.983	> 1.02 µM	0.591	1.78 µM
G-402 (soft tissue, adherent)	–	–	0.798	6.87 µM	0.811	7.66 µM	0.921	> 1.02 µM	0.576	1.73 µM
T98G (glioma, adherent)	–	–	0.868	8.15 µM	0.945	> 10 µM	0.987	> 1.02 µM	0.8	7.09 µM
SW837 (large intestine, adherent)	–	–	0.958	> 10.2 µM	0.857	> 10 µM	0.952	> 1.02 µM	0.719	5.19 µM
NCI-H1048 (small cell lung carcinoma, adherent)	–	–	0.792	4.12 µM	0.977	> 10 µM	0.989	> 1.02 µM	0.853	10.6 µM
A2780 (ovary, semi-adherent)	–	–	0.823	6.35 µM	0.922	> 10 µM	0.978	> 1.02 µM	0.622	2.2 µM
COLO-678 (large intestine, semi-adherent)	–	–	0.957	> 10.2 µM	0.933	> 10 µM	0.965	> 1.02 µM	0.807	11.2 µM
KYSE-270 (oesophagus, adherent)	–	–	0.841	5.65 µM	0.86	6.46 µM	0.987	> 1.02 µM	0.245	0.212 µM
CHP-212 (neuroblastoma, adherent)	–	–	0.973	> 10.2 µM	0.757	3.2 µM	0.878	0.902 µM	0.522	1.14 µM
SKG-IIIa (cervix, adherent)	–	–	0.983	> 10.2 µM	0.908	> 10 µM	0.976	> 1.02 µM	0.936	> 16 µM
BHY (head and neck, adherent)	–	–	0.8	4.98 µM	0.841	6.97 µM	0.985	> 1.02 µM	0.5	0.999 µM
NCI-H1703 (lung adenocarcinoma, adherent)	–	–	0.888	> 10.2 µM	0.961	> 10 µM	0.981	> 1.02 µM	0.827	12.9 µM
PC-14 (lung adenocarcinoma, adherent)	–	–	0.819	5.02 µM	0.928	> 10 µM	0.987	> 1.02 µM	0.821	7.97 µM
NCI-H1793 (lung adenocarcinoma, adherent)	–	–	0.967	> 10.2 µM	0.961	> 10 µM	0.977	> 1.02 µM	0.823	15 µM
T47D (breast, adherent)	–	–	0.827	> 10.2 µM	0.888	> 10 µM	0.967	> 1.02 µM	0.79	11.9 µM
H2595 (mesothelioma, adherent)	–	–	0.972	> 10.2 µM	0.823	9.26 µM	0.978	> 1.02 µM	0.764	8.12 µM

The IC50 comes from the fitted curve, where viability falls to half of the control; fits outside the tested doses are given as limits. The AUC spans the tested range (256-fold, ending at the top dose) of the same fit; it is 1 without any effect and falls as sensitivity rises. Where the top dose is marked as inferred, it was derived from the fitted curves, not read from the paper.
